Among all 310,000 compounds or so, about 18,000 (5.8%) were called active. The shares of active, inactive and inconclusive entries below differ from those in the screen. The call rests on the fitted dose curve; in most records, active means well fitted inhibition curve with a large enough effect; inconclusive means small, poorly fitted or top-dose-only effect, or another doubt; inactive means no such curve, though single readings can be large or run the other way. No potency is given beside an inconclusive call; the fits are too rough.
Assay: Primary qHTS for delayed death inhibitors of the malarial parasite plastid, 48 hour incubation
Conditions: P. falciparum luciferase growth in erythrocytes; series mostly up to 28.7 µM
In short: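 Firefly luciferase activity from engineered P. falciparum reports growth; inhibitors lower the luminescent signal. Cultures contained 2% hematocrit erythrocytes at 0.1% final parasitemia.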
On the % scale 0 is the no-effect control and ±100 the full control effect; potency means the concentration at half of the fitted maximal effect; tags describe the fitted curve by direction and shape.

Which Potency does the source give for `CCCn1c(-c2ccc(OC)cc2)nc2nc3ccccc3nc21` here?
Its Potency is “inactive”.

For `CSc1ccccc1NC(=O)CN(C)Cc1c(O)ccc2ccccc12`, which Potency is on record?
The Potency was “inactive”.

For `O=[N+]([O-])c1ccc(C(O)CN2CCN(Cc3ccccc3)CC2)cc1` (stereo not given), which Potency is on record?
Its Potency is inconclusive [inhibitor, single point].

Which Potency does the source give for `COc1ccc(C(=O)NC(=S)N2CCCCC2)cc1[N+](=O)[O-]` here?
Its Potency is inconclusive [inhibitor, partial curve, poor fit].

For `COc1ccc(/C=N/NC(=O)c2ccc(COc3ccccc3Cl)o2)cc1`, which Potency is on record?
Its Potency is “inactive”.

For `Cc1ccc(NC2CCCN(C(=O)C3CCCCC3)C2)cc1C` (stereo not given), which Potency is on record?
Its Potency is inconclusive [inhibitor, partial curve, poor fit].

With `COc1cc(-c2c(-c3ccc4c(c3)OCO4)noc2C)ccc1F` as the compound, how does the Potency read?
The Potency was “inactive”.

For `CC(C)(C)NC(=O)COc1ccc(CNCCc2ccccc2)cc1`, which Potency is on record?
Its Potency is inconclusive [inhibitor, single point].

With `N/C(=N\OC(=O)c1cc(Cl)ccc1Cl)c1ccncc1` as the compound, how does the Potency read?
The Potency was inconclusive [inhibitor, single point].

With `Cc1cccc(NC(=O)[C@@H](CC(C)C)NC(=O)[C@@H]2Cc3ccccc3CN2)c1` as the compound, how does the Potency read?
Its Potency is inconclusive [inhibitor, partial curve, poor fit].

With `Cc1ccc(C(=O)NNC(=O)c2ccc(NS(=O)(=O)c3cccs3)cc2)o1` as the compound, how does the Potency read?
Its Potency is “inactive”.

For `COCCOC(=O)c1c(NC(=O)CN(C)c2ccccc2)sc(C(N)=O)c1C`, which Potency is on record?
The Potency was inconclusive [inhibitor, single point].

With `CCOC(=O)N1CCC(NC(=O)c2cc(S(=O)(=O)N3CCc4ccccc43)cn2C)CC1` as the compound, how does the Potency read?
Its Potency is inconclusive [inhibitor, full curve, poor fit].

Which Potency does the source give for `COC(=O)C1=C(c2c(C)noc2C)C[C@@H]2CC[C@H]1N2C(=O)NC1CCCCC1` here?
The Potency was “inactive”.

With `O=c1n(CC2CO2)c(=O)n(CC2CO2)c(=O)n1CC1CO1` (stereo not given) as the compound, how does the Potency read?
Its Potency is active: 9.53 µM.

With `CCOc1ccc(NC(=O)CN(C)C(=O)C2CCN(c3ncnc4sc(C)c(C)c34)CC2)cc1OCC` as the compound, how does the Potency read?
The Potency was inconclusive [inhibitor, partial curve, poor fit].

Which Potency does the source give for `CCc1ccc(C(=O)COC(=O)c2cncc(Br)c2)cc1` here?
The Potency was active: 16.5 µM.

Which Potency does the source give for `CCOc1ccc(C(=O)N/N=C(/C)C2C(=O)c3ccccc3C2=O)cc1` here?
Its Potency is “inactive”.

For `Cc1ccc(NC(=O)CNCc2ccccn2)cc1S(=O)(=O)N(C)C`, which Potency is on record?
Its Potency is active: 16.5 µM.

Which Potency does the source give for `Cc1ccc(N(C(=O)CCC(=O)Nc2cc(C)on2)C(C(=O)NC2CCCC2)c2cccs2)cc1` (stereo not given) here?
The Potency was active: 11.7 µM.

For `NC(=O)c1ccc[n+](CC(=O)Nc2ccccc2C(=O)O)c1`, which Potency is on record?
The Potency was “inactive”.

With `CCCCNC(=O)COC(=O)c1c2c(nc3ccccc13)/C(=C/c1cccs1)CC2` as the compound, how does the Potency read?
Its Potency is “inactive”.

For `CCOC(=O)c1c(C)c(C(=O)N2CCCCCC2)c(C)n1C`, which Potency is on record?
The Potency was inconclusive [inhibitor, partial curve, poor fit].

Which Potency does the source give for `CC(=O)N(C)C1=C(N2CCOCC2)C(=O)c2ccccc2C1=O` here?
The Potency was active: 2.08 µM.

For `O=C(O)c1cccc(Cn2c(Cl)c(/C=N/NC(=O)c3ccccc3Cl)sc2=O)c1`, which Potency is on record?
Its Potency is “inactive”.

With `Cc1ccc(OCCCC(=O)Nc2ccc(Cl)c(S(=O)(=O)N3CCOCC3)c2)cc1` as the compound, how does the Potency read?
The Potency was inconclusive [inhibitor, single point].

With `CNS(=O)(=O)c1cc(C(=O)NCc2ccco2)ccc1Cl` as the compound, how does the Potency read?
Its Potency is “inactive”.

Which Potency does the source give for `COc1cccc(OC)c1C(=O)Nc1ccc2c(c1)CCCN2S(=O)(=O)c1ccc(C)cc1` here?
Its Potency is inconclusive [inhibitor, partial curve, poor fit].

With `CC1CCN(CC(O)COCCOc2ccc(Br)cc2)CC1` (stereo not given) as the compound, how does the Potency read?
The Potency was inconclusive [inhibitor, partial curve, poor fit].

With `COc1cccc(-n2nnc3c(=O)n(CC(=O)Nc4ccccc4C)cnc32)c1` as the compound, how does the activity change, negative = inhibition read?
Its activity change, negative = inhibition is inactive: -26.4% [at 1.15 µM].

For `COc1ccc(N=C2C(=Nc3ccc(OC)cc3)N(c3ccc(OC)cc3)C(=S)N2C(=O)c2ccc(OC)cc2)cc1`, which Potency is on record?
The Potency was inconclusive [inhibitor, full curve].

For `COc1ccccc1NC(=O)CN1CCC(n2nnc3cc(F)ccc32)CC1`, which Potency is on record?
Its Potency is inconclusive [inhibitor, partial curve].

For `COC(=O)c1ccccc1OCCCOc1ccc(C=O)cc1OC`, which Potency is on record?
The Potency was “inactive”.

With `O=[N+]([O-])c1ccc(-c2cnc(SC(c3ccccc3)c3ccccc3)[nH]2)cc1` as the compound, how does the Potency read?
Its Potency is inconclusive [inhibitor, partial curve, poor fit].

For `O=C(c1cccc(N2CCNC2=O)c1)N1CCCC(Nc2cccc(F)c2)C1` (stereo not given), which Potency is on record?
Its Potency is inconclusive [inhibitor, partial curve].

With `Cc1cccc(-n2ncc(C(=O)NC3CCCC3)c2C2CCN(C(=O)OC(C)(C)C)CC2)c1` as the compound, how does the Potency read?
The Potency was active: 1.47 µM.

With `CC(=O)C1=C(C)NC(SCC(=O)c2ccc(Cl)cc2)=C(C#N)C1CC(C)C` (stereo not given) as the compound, how does the Potency read?
Its Potency is inconclusive [inhibitor, single point].

For `COc1ccc(-c2ccc([C@H]3[C@@H]4C=CCC[C@@]4(C)C(=O)N3Cc3ccccc3)c(F)c2)cc1`, which Potency is on record?
The Potency was inconclusive [inhibitor, partial curve, poor fit].

For `COC(=O)c1ccc(NC2(C#N)C(=O)Nc3ccccc32)cc1` (stereo not given), which Potency is on record?
Its Potency is inconclusive [inhibitor, single point].

Which Potency does the source give for `CSc1nc2c(c(=O)[nH]1)C(c1ccccc1)C1=C(CC(C)(C)CC1=O)N2` (stereo not given) here?
Its Potency is inconclusive [inhibitor, partial curve, poor fit].

Which Potency does the source give for `O=C(CSCc1ccc(Br)cc1)N1CCOCC1` here?
The Potency was “inactive”.

For `COc1cccc(/C(C#N)=C/c2c(-c3ccc(Cl)cc3)nc3c(C)cccn23)c1`, which Potency is on record?
Its Potency is active: 1.31 µM.

For `CC(C)(C)c1ccc(Cn2nc(CC(=O)O)c3ccccc3c2=O)cc1`, which Potency is on record?
The Potency was “inactive”.

Which Potency does the source give for `CCCCCCC(O)(c1ccccc1)C(CN1CCOCC1)c1ccccc1` (stereo not given) here?
Its Potency is active: 3.29 µM.

With `Cc1cc(-c2nnc3n2N=C(c2ccccc2Br)CS3)n[nH]1` as the compound, how does the Potency read?
The Potency was inconclusive [inhibitor, partial curve].

— PubChem BioAssay AID504832 (National Center for Advancing Translational Sciences (NCATS), 2011)
